# Measured values published in publication PMC11062913.
# Molecular target: Negative elongation factor A (UniProt Q9H3P2)
# Assay: cross-link between two proteins; cross-linking mass spectrometry
substance,measurement,value
Negative elongation factor B,listed as a hit,yes
